Several values for one entry are separate records, joined by “and”; a condition that tells them apart may be missing. Equal entries are not always repeated. Screen size: about 360,000 compounds; about 25,000 (6.9%) were called active. The shares of active, inactive and inconclusive entries below differ from those in the screen. Calls come from the whole dose curve; as a rule, active = well fitted inhibition curve with a large enough effect; inconclusive = small, poorly fitted or top-dose-only effect; inactive = flat fitted curve, though single readings scatter. A potency beside an inconclusive call is a rough fit, not a confirmed value.
These compounds were tested against Luciferin 4-monooxygenase (Photinus pyralis) (UniProt P08659) (assay: qHTS profiling assay for firefly luciferase inhibitor/activator using purifed enzyme and Km concentrations of substrates (counterscreen for miR-21 project)). Settings: purified FLuc, luminescence inhibition; series mostly up to 57.5 µM; activity change, negative = inhibition: at the top concentration.
UniProt P08659, sequence (P08659 whole entry, looked up): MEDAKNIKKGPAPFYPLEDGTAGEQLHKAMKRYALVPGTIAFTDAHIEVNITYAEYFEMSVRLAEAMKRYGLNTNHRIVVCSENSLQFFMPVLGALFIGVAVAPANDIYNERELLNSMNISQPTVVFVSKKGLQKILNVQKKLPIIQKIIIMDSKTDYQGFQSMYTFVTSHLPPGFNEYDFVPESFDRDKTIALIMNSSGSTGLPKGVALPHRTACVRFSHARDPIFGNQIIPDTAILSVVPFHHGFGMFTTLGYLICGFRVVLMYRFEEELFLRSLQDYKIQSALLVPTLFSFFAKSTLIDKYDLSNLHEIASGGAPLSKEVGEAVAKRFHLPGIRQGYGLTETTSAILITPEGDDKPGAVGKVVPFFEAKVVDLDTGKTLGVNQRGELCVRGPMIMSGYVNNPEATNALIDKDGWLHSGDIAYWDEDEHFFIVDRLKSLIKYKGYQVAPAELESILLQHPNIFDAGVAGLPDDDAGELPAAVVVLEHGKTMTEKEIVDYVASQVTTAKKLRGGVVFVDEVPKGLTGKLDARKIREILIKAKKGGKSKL
In short: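 Purified P. pyralis luciferase (10nM final) with 10uM D-luciferin and 10uM ATP (Km levels) in 50mM Tris acetate pH 7.5, 10mM Mg acetate, 0.01% Tween-20, 0.05% BSA; qHTS 6-point titration, ~60 µM downward; luminescence read.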
For `CC(C)(C)c1ccc(NC(=O)NCc2ccco2)cc1`, the Potency was active: 23.9 µM.
`CCOC(=O)c1ccc(NC(=O)Cn2cccc2)cc1` was tested, and the Potency was inconclusive: 21.3 µM [inhibitor, single point].
With `Cc1ccccc1/C=C/C12NC(=O)CN1c1ccccc1C2(C)C` (centres undefined) the Potency was inconclusive: 33.8 µM [inhibitor, single point].
In the case of `Nn1c(SCc2ccc(F)cc2)nnc1-c1ccccn1`, the Potency was inconclusive: 30.1 µM [inhibitor, partial curve, poor fit].
In the case of `COc1ccccc1N1CCN(/N=C/c2ccc(C(=O)O)cc2)CC1`, the Potency was active: 2.69 µM.
For `COc1cc(/C=N/Nc2nc(=O)[nH]nc2C)cc([N+](=O)[O-])c1O`, the Potency was inconclusive: 15.1 µM [inhibitor, partial curve].
`O=C(Nc1ccc2oc(-c3ccccc3)nc2c1)c1cc(-n2cnnc2)ccc1Cl` was tested, and the Potency was inconclusive: 19 µM [inhibitor, partial curve].
`CC(=O)Nc1ccc(/C(C)=N/Nc2nc(Nc3cccc4ccccc34)nc(N3CCOCC3)n2)cc1` was tested, and the Potency was inconclusive: 19 µM [inhibitor, partial curve, poor fit].
`CCOC(=O)c1cccc(NC(=O)c2cc(C)nc3c2c(C)nn3-c2ccc(C)cc2)c1` was tested, and the “activity change, negative = inhibition” value was inactive: 1.45%.
For `O=C(Nc1ccc(-n2cnnn2)cc1)c1cn2ccccc2n1`, the Potency was inconclusive: 3.01 µM [inhibitor, partial curve, poor fit].
`CCCCNC(=O)Nc1nc2ccc(CC)cc2s1` was tested, and the Potency was active: 6.75 µM.
In the case of `COc1ccc(-c2onc(C)c2-c2ccc(C(=O)OC(C)C)o2)c(O)c1`, the Potency was inconclusive: 26.9 µM [inhibitor, partial curve, poor fit].
`O=C(O)c1c2c(nc3ccccc13)-c1ccccc1CC2` was tested, and the Potency was active: 10.7 µM.
In the case of `O=C(/C(=C(\O)c1ccccc1)c1nc2ccccc2[nH]1)c1ccccc1`, the “activity change, negative = inhibition” value was inactive: 0.465%.
In the case of `N#Cc1nc(COc2ccccc2)oc1NCCCn1ccnc1`, the Potency was inconclusive: 26.9 µM [inhibitor, partial curve, poor fit].
In the case of `Cc1cccc(C)c1NC(=O)CCCn1c(=O)c2cccn2c2ccccc21`, the Potency was active: 5.36 µM.
`COc1ccc(-c2nc(CCNC(=O)c3ccccc3)cs2)cc1OC` was tested, and the Potency was inconclusive: 16.9 µM [inhibitor, partial curve].
For `Fc1cccc(NC(=S)NCCc2ccccc2)c1`, the Potency was inconclusive: 37.9 µM [inhibitor, partial curve, poor fit].
For `O=Cc1sc(Nc2ccccc2)nc1Cl`, the Potency was inconclusive: 37.9 µM [inhibitor, partial curve, poor fit].
With `O=C1C(=O)N(C2CCNCC2)CCN1Cc1ccccc1` the “activity change, negative = inhibition” value was inactive: -4.65%.
For `Cc1cccc(/C=N\NC(=O)c2ccc(Cl)cc2)c1O`, the Potency was active: 1.51 µM.
In the case of `O=C(Nc1sc2c(c1C(=O)NCC1CCCO1)CCC2)c1cc(=O)c2cc(Cl)ccc2o1` (centres undefined), the “activity change, negative = inhibition” value was inactive: -0.36%.
For `COc1cc(/C=N/NS(=O)(=O)c2ccc3ccccc3c2)ccc1OCc1ccc(C(=O)O)cc1`, the Potency was active: 0.338 µM.
In the case of `Cc1ccc(NC(=O)C(NCc2ccccn2)c2ccccc2)cc1` (centres undefined), the Potency was active: 16.9 µM.
With `COc1ccc(CNC(=O)Cc2cn(C)c3ccccc23)c(OC)c1` the Potency was inconclusive: 26.9 µM [inhibitor, single point].
`Cc1ccc(-n2cc(CN(C)Cc3nccn3C)c(-c3ccc(F)cc3)n2)cc1` was tested, and the Potency was inconclusive: 21.3 µM [inhibitor, partial curve, poor fit].
For `CCOC(=O)c1cnc(-n2nc(C)cc2C)nc1NC`, the Potency was inconclusive: 23.9 µM [inhibitor, single point].
For `O=C(c1ccc(COc2c(F)c(F)cc(F)c2F)o1)N1CCN(c2ccccc2)CC1`, the Potency was inconclusive: 7.57 µM [inhibitor, partial curve, poor fit].
In the case of `C=CCSc1n[nH]c(-c2ccc(OCCC)cc2)n1`, the Potency was active: 10.7 µM.
With `CCC(C)c1ccccc1OCC(=O)Nc1ccc(S(=O)(=O)Nc2cc(C)on2)cc1` (centres undefined) the Potency was inconclusive: 12 µM [inhibitor, partial curve, poor fit].
With `COc1ccc(-c2cc3ncc(C(=O)c4cc([N+](=O)[O-])ccc4O)cn3n2)cc1` the Potency was inconclusive: 10.7 µM [inhibitor, partial curve].
In the case of `CCCn1c2ccccc2c2cnn(CC(=O)NCCCN(CC)c3ccccc3)c(=O)c21`, the Potency was inconclusive: 6.75 µM [inhibitor, partial curve, poor fit].
For `Cc1ccc(NC(=O)Cc2c(C(=O)O)n(C)c3ccccc23)cc1F`, the Potency was inconclusive: 21.3 µM [inhibitor, partial curve].
`O=[N+]([O-])c1cccnc1NCCc1c[nH]c2ccccc12` was tested, and the Potency was inconclusive: 2.39 µM [inhibitor, full curve].
`c1ccn2cc(-c3ccc4c(c3)OCO4)cc2c1` was tested, and the Potency was active: 3.38 µM.
`CSc1nsc2nc(=O)c(/C=C3\C(C)=Nc4ccccc43)c(N)n12` was tested, and the Potency was active: 15.1 µM.
In the case of `Nc1c(-c2ccc3c(c2)OCCO3)oc2ccccc2c1=O`, the Potency was active: 9.53 µM.
With `COc1ccccc1Cn1c(=S)[nH]c2ccc(F)cc2c1=O` the “activity change, negative = inhibition” value was inactive: -0.984%.
`Cc1ccc2c(c1)N(S(=O)(=O)c1ccc(CN3C(=O)c4cccnc4C3=O)s1)CCO2` was tested, and the “activity change, negative = inhibition” value was inactive: 0.454%.
`Cc1ccc(C)n1-n1c(C)nc2sc(-c3ccccc3)cc2c1=O` was tested, and the Potency was active: 16.9 µM.
`Cc1cc(C(=O)COC(=O)c2ccc3c(c2)OCO3)c(C)n1CC1CCCO1` (centres undefined) was tested, and the Potency was active: 2.13 µM.
`Cc1ccc(/C(O)=C2/C(=O)C(=O)N(Cc3ccco3)C2c2cccs2)cc1` (centres undefined) was tested, and the Potency was active: 23.9 µM.
`CCOc1cc(/C=N/NC(=O)C(=O)Nc2cc(Cl)ccc2C)ccc1O` was tested, and the “activity change, negative = inhibition” value was inactive: -1.27%.
`COc1ccc(NC(=O)n2ncc3cc(Cl)ccc32)cc1OC` was tested, and the Potency was inconclusive: 16.9 µM [inhibitor, partial curve, poor fit].
With `O=C(NCCOc1ccc(Cl)cc1)c1ccc2ccccc2n1` the Potency was inconclusive: 37.9 µM [inhibitor, partial curve, poor fit].
For `c1cnc2cc(-c3ccsc3)ncc2c1`, the Potency was inconclusive: 23.9 µM [inhibitor, partial curve, poor fit].
`COc1ccc(NC(=O)c2cc(-c3cccnc3)nc3ccc(C)cc23)cc1OC` was tested, and the Potency was inconclusive: 3.01 µM [inhibitor, partial curve].
With `Cc1ccc(C=Nc2ccccc2C#N)s1` the Potency was active: 1.35 µM.
For `CC(C)COc1ccc(-c2nn(-c3ccccc3)cc2CO)cc1`, the Potency was inconclusive: 37.9 µM [inhibitor, single point].
For `Cc1nn(-c2ccccc2)c2[nH]c(=O)c(CNc3ccc4c(c3)OCCO4)cc12`, the Potency was inconclusive: 23.9 µM [inhibitor, single point].
In the case of `COc1ccc(NC(=O)c2ccc(COc3ccc(C)cc3)o2)cc1`, the Potency was active: 10.7 µM.
In the case of `Cc1cccc(C(=O)N2CCc3cc(-c4csc(NC(=O)CN5CCCC5)n4)ccc32)c1`, the Potency was inconclusive: 23.9 µM [inhibitor, single point].
`CN(C)CCCNC(=S)N(Cc1cccs1)Cc1cc2cc3c(cc2[nH]c1=O)OCCO3` was tested, and the Potency was inconclusive: 37.9 µM [inhibitor, single point].
For `COc1ccc(/C=C/C(=O)NCCCc2ccccc2)cc1`, the Potency was inconclusive: 8.49 µM [inhibitor, single point].
`CCOc1ccc2nc(N/C(N)=N/C(=S)Nc3cccc(OC)c3)nc(C)c2c1` was tested, and the Potency was inconclusive: 8.49 µM [inhibitor, partial curve, poor fit].
With `CC(C)c1ccc2c(c1)c(SC(C)(C)C)c(CC(C)(C)C(=O)O)n2Cc1ccc(Cl)cc1` the Potency was inconclusive: 26.9 µM [inhibitor, single point] and inconclusive: 37.9 µM [inhibitor, partial curve, poor fit].
In the case of `CC(=O)Oc1ccc2nc(-c3ccco3)oc(=O)c2c1`, the Potency was active: 12 µM.
For `COc1cccc(NC(=O)Nc2ccc3c(c2)CCC3)c1`, the Potency was active: 4.26 µM.
`CCOC(=O)C1CCCN(C(=S)Nc2ccc(Nc3ccccc3)cc2)C1` (centres undefined) was tested, and the “activity change, negative = inhibition” value was inactive: -7.25%.
With `COc1ccc(C2NC(=S)NC(C)=C2C(=O)Nc2ccccn2)cc1` (centres undefined) the Potency was inconclusive: 37.9 µM [inhibitor, partial curve, poor fit].
`CC(C)CC(=O)Nc1ccc2oc(-c3cccnc3)nc2c1` was tested, and the Potency was active: 13.5 µM.
`C/C(=N\O)c1ncc(C(F)(F)F)cc1Cl` was tested, and the “activity change, negative = inhibition” value was inactive: -0.649%.
In the case of `Cn1nc(C(F)(F)F)cc1-c1ccc(S(N)(=O)=O)s1`, the Potency was inconclusive: 26.9 µM [inhibitor, single point].
`O=C(CC1CCCCC1)NCc1ccccc1Cl` was tested, and the Potency was inconclusive: 23.9 µM [inhibitor, single point].
`CCC(C)(C)C1CCc2c(sc(NC(=O)c3cccs3)c2C(N)=O)C1` (centres undefined) was tested, and the Potency was inconclusive: 1.69 µM [inhibitor, full curve].
`C/C(=N/N=C(/C)c1cccs1)c1cccs1` was tested, and the Potency was active: 4.78 µM.
`CC1CCCCN1S(=O)(=O)c1cc2c(=O)nc3ccccn3c2cc1Cl` (centres undefined) was tested, and the “activity change, negative = inhibition” value was inactive: -0.879%.
With `COc1ccc(Br)cc1C(=O)Nc1ccc(N2CCCC2)cc1` the Potency was inconclusive: 6.75 µM [inhibitor, partial curve].
In the case of `O=C1CC(c2nnc(Cc3cccc(Cl)c3)o2)CN1c1ccccc1` (centres undefined), the “activity change, negative = inhibition” value was inactive: -8.72%.
In the case of `O=C(O)C1=C(C(=O)Nc2cc(C(F)(F)F)ccc2Cl)CCCC1`, the “activity change, negative = inhibition” value was inactive: -17.5%.
For `COc1cccc(-c2cc(C(=O)Nc3ccc(Br)c(C)c3)[nH]n2)c1`, the “activity change, negative = inhibition” value was inactive: -6.13%.
With `CCC1CN(C(=O)Nc2cccc(OC)c2)c2ccccc2O1` (centres undefined) the “activity change, negative = inhibition” value was inactive: -6.98%.
For `Cc1[nH]c2ccccc2c1N=Nc1ccccc1F`, the Potency was inconclusive: 37.9 µM [inhibitor, single point].
In the case of `CCOc1ccc(Nc2sc(C(=O)c3ccc4c(c3)OCO4)c(N)c2S(=O)(=O)c2ccc(C)cc2)cc1`, the “activity change, negative = inhibition” value was inactive: 1.79%.
Note: nearly all actives have a fitted effect of over 55% in size.
Potency is the fitted concentration of half-maximal effect; tags give direction and shape of the fitted curve.
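Throughout, for activity change, negative = inhibition: plate controls were vehicle for no effect and reference inhibitor for full effect.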
